The first assay addresses T1, Urease ous Canavalia ensiformis (Jack bean) (Canavalia ensiformis, UniProt P07374). Description: biochemical. The settings on record: 1 h, read-out: inhibition rate (normed, based on NBPT).
T1 sequence (P07374 whole entry, looked up): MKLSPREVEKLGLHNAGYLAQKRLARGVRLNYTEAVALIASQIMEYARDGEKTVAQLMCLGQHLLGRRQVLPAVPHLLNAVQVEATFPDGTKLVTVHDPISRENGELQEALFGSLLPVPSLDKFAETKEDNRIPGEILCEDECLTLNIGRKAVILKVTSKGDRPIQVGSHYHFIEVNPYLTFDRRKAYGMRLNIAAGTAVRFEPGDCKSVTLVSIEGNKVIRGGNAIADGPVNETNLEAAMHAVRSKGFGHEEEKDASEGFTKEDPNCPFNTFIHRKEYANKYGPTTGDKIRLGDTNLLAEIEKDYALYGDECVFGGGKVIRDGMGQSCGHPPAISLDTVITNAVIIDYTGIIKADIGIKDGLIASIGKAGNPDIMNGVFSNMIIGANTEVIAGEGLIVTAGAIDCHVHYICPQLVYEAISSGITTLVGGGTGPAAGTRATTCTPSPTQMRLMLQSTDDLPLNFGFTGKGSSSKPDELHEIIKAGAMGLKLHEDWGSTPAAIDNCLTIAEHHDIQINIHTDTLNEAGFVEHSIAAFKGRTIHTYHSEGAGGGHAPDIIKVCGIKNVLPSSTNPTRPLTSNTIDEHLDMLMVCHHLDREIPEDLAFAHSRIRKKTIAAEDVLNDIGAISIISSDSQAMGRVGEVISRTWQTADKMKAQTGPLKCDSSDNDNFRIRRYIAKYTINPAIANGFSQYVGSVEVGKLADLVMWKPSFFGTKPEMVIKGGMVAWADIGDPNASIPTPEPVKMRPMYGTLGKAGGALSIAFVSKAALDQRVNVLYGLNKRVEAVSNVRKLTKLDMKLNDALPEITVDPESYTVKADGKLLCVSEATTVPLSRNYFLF
In the case of `CC(C)=CCCC(C)C=O` (racemic) [MELONAL, (±)-2,6-Dimethyl-5-heptenal], the inhibition at 0.1 % is 42.9%.
On the same count and under the same terms, next, `CC1=CCC2[C@H](C1)C2(C)C` (stereo partly drawn) [CAREN DELTA-3, (1S)-3,7,7-Trimethyl-bicyclo[4.1.0]hept-3-en]: 72.8%.
The same measure, in the same setting: for `OCC=Cc1ccccc1` [CINNAMIC ALCOHOL, Cinnamyl alcohol] the value was 43%; for `CC(C)=CCCC(C)CCO` (stereo not shown) [CITRONELLOL, Citronellol], 98.2%; for `CC/C=C\CCO` [HEXENOL CIS-3, Cis-3-Hexenol], 64%.
In the case of `C=C(C)C1CC=C(C)CC1` (stereo not shown) [LIMONENE D nat, p-Mentha-1,8-dien], the inhibition at 0.1 % was 86.6%.
The same measure, in the same setting: next, `C=C1CCC2CC1C2(C)C` (stereo not drawn) [PINEN BETA, beta-Pinen]: 103%.

The same assay, now with this note: 1 h, read-out: inhibition rate (normed, based on NBPT), FRM 0,1% final, urea 1g/L, urease 2 U/mL, PBS 1x, 24°C, 1 hour, 560 nm; printed as fraction normed to NBPT.
Regarding `CCCC1CC=C(C)C(=O)C1` (stereo not shown) [2-METHYL-5-PROPYL-2-CYCLOHEXENONE, 2-Methyl-5-propyl-2-Cyclohexenone], the inhibition at 0.1 % was 84.7%.
The same measure, in the same setting: for `C=CCCC(=O)C1=CCCC(C)(C)C1` [DYNASCONE, 1-(5,5-Dimethyl-1-cyclohexenyl)pent-4-en-1-one] the value was 92.8%.
Still for that read-out and setting: for `CC12CCC(CC1)C(C)(C)O2` [EUCALYPTOL, Eucalyptol] the value was 104%.
On the same count and under the same terms, for `CC(C)CC1CC(C)(O)CCO1` (stereo not shown) [FLOROSA, 4-Methyl-2-(2-methylpropyl)oxan-4-ol] the value was 44.2%.
`CC(C)=CCC/C(C)=C/C=O` [GERANIAL, Geranial]: the inhibition at 0.1 % came to 99.2%.
On the same count and under the same terms, for `CC(C)=CCC/C(C)=C/CO` [GERANIOL 60 B, Geraniol] the value was 83.4%; for `CCC/C=C/C=O` [HEXENAL TRANS-2, Trans-2-Hexenal], 38.1%.
Consider `CCC/C=C/CO` [HEXENOL TRANS-2, Trans-2-Hexenol], for which the inhibition at 0.1 % turned out to be 45.5%.
The same measure, in the same setting: next, `CC/C=C\CCOC(C)=O` [HEXENYL ACETATE CIS-3, Cis-3-hexenyl acetate]: 77.9%.
The same measure, in the same setting: next, `CC/C=C\CCOC(=O)CCC` [HEXENYL BUTYRATE CIS-3, Cis-3-hexenyl butyrate]: 77.9%.
Still for that read-out and setting: next, `CC/C=C\CCOC(=O)CCCCC` [HEXENYL CAPROATE CIS-3, Cis-3-hexenyl hexanoate]: 44.9%; `CC/C=C\CCOC(=O)CC(C)C` [HEXENYL I[…]-3, Cis-3-Hexenyl isovalerate]: 80.4%.
Regarding `CC/C=C\CCOC(=O)C(C)C` [HEXENYL I[…]-3, Cis-3-hexenyl isobutyrate], the inhibition at 0.1 % was determined as 88.3%.
On the same count and under the same terms, next, `CC/C=C\CCOC(=O)CC` [HEXENYL […]-3, Cis-3-hexenyl propionate]: 85.9%.
Same read-out and setting: for `CC/C=C\CCOC(=O)c1ccccc1O` [HEXENYL […]-3, Cis-3-hexenyl salicylate] the value was 88.5%; for `CCCCCCC(C=O)=Cc1ccccc1` [HEXYL CINNAMIC ALDEHYDE ALPHA, Alpha-hexyl cinnamaldehyde], 62.6%.
Still for that read-out and setting: next, `CC(CC=O)c1ccc(C(C)(C)C)cc1` (stereo not shown) [LILIAL, 3-(4-Tert-butylphenyl)butanal]: 34.7%; `C=CC(C)(O)CCC=C(C)C` (stereo not shown) [LINALOOL, Linalool]: 96.9%.
As to `CCC1OC(=O)C(O)=C1C` (stereo not shown) [METHYL ETHYL HYDROXYFURANONE, 5-Ethyl-3-hydroxy-4methyl-2(5H)-furanon], the inhibition at 0.1 % was determined as 61.1%.
Still for that read-out and setting: next, `CC(C)=CCCC(C)=CCO` [NEROL 900, 3,7-Dimethylocta-2,6-dien-1-ol]: 31.1%; `CC1=CCC2CC1C2(C)C` (stereo not drawn) [PINEN ALPHA, alpha-Pinen]: 32.2%.
On the same count and under the same terms, next, `CC1=CC(O)CC(C)C2CC(=C(C)C)CC12` (stereo not shown) [VETIVEROL, 4,8-dimethyl-2-propan-2-ylidene-3,3a,4,5,6,8a-hexahydro-1H-azulen-6-ol]: 100%.
Take `CC1=CC2C(=C(C)CCCC2(C)C)CC1` (stereo not shown) [[…], 2,5,9,9-tetramethyl-3,4,6,7,8,9a-hexahydrobenzo[7]annulene]: the inhibition at 0.1 % amounted to 72.5%.
Consider `C=C1/C=C/[C@H](C(C)C)CC/C(C)=C/CC1` [[…], (1E,6E,8S)-1-methyl-5-methylidene-8-propan-2-ylcyclodeca-1,6-diene], for which the inhibition at 0.1 % was determined as 98.1%.
On the same count and under the same terms, for `CC/C=C\CCOC(C)OCC` (stereo not drawn) [cis-1-(1-Ethoxyethoxy)-3-hexene] the value was 81.2%.

In another assay the target is T1, Urease ous Canavalia ensiformis (Jack bean).
Assay: not given
Details: not given
Consider `CCc1ccc(CC(C)(C)C=O)cc1` [FLORALOZONE, 3-(4-Ethylphenyl)-2,2-dimethylpropanal], for which the “inhibition rate (normed, based on NBPT)” value is recorded as 0,954.
On to `CCc1ccc(CC(C)(C)C=O)cc1` [FLORAZON, 3-(4-Ethylphenyl)-2,2-dimethylpropanal], for which the “inhibition rate (normed, based on NBPT)” value is 0,371.
On the same count and under the same terms, for `Cc1ccc2c(c1)OC(=O)C2C` (stereo not shown) [FURAMINTON/TONKALACTONE™, Dimethyl benzofuranone] the value was 0,889.

The assay is the same for the next values; noted with them: 1 hour, 24°C, urea 1g/L, urease 2 U/mL, PBS 1x.
For `CCCCNP(N)(N)=S` [NBPT, N-(n-Butyl)thiophosphoric triamide, reference compound], the “Δ Absorbance at 1h (560nm)” value is recorded as 0,00.

The assay is the same for the next values; noted with them: FRM 0,1% final, urea 1g/L, urease 2 U/mL, PBS 1x, 24°C, 1 hour, 560 nm; printed as fraction normed to NBPT.
As to `C=C(C)[C@@H]1CC=C(C)[C@H](OC(C)=O)C1` (relative stereo) [CARVYL ACETATE CIS-, Cis-Carvyl acetate], the “inhibition rate (normed, based on NBPT)” value is recorded as 0,828.
Same read-out and setting: next, `CCCCCCCCCC(C)C=O` (stereo not shown) [ALDEHYDE C12 MNA, Aldehyde C12]: 0,377; `CC(C)=CCCC(C)=CC=O` [CITRAL 95, Citral]: 0,322; `CC(C)=CCCC(C)=CC=O` [CITRAL FF, Citral]: 0,701.
The same measure, in the same setting: for `CC(C=O)Cc1ccc(C(C)C)cc1` (stereo not shown) [CYCLAMEN ALDEHYDE, Cyclamen aldehyde] the value was 0,543.
Same read-out and setting: for `CC=CC(=O)C1C(C)=CCCC1(C)C` (stereo not drawn) [DAMASCONE ALPHA, Alpha Damascone] the value was 0,676; for `CC=CC(=O)C1=C(C)C=CCC1(C)C` [D[…], Beta-damascenone], 0,887.
With `CC(C=O)Cc1ccc2c(c1)OCO2` (stereo not shown) [HELIONAL, Helional], the “inhibition rate (normed, based on NBPT)” value was 0,975.
Same read-out and setting: for `CC(=O)C=CC1=C(C)CCCC1(C)C` [IONONE BETA, Beta Ionone] the value was 0,495.
On to `CCCCCC(CO)Cc1ccccc1` (stereo not shown) [JASMOL, Jasmol], for which the “inhibition rate (normed, based on NBPT)” value is given as 0,817.
The same measure, in the same setting: next, `CC1=CC(C)C(C=O)CC1` (stereo not shown) [LIGUSTRAL, (Z,E)-2,4-dimethyl cyclohex-3-ene-1-carbaldehyde]: 0,482.
The same measure, in the same setting: for `CC1=C(O)C(=O)CC1` [METHYL CYCLOPENTENOLONE-3,2,2 NAT., Methyl cyclopentenolone] the value was 0,808; for `CC(=O)CCC=C(C)C` [METHYL HEPTENONE-6,5,2, Methyl heptanone], 0,549; for `CCC(=O)/C=C/C1C(C)=CCCC1(C)C` (stereo not drawn) [METHYL IONONE ALPHA / IFF, Alpha-methyl ionone], 0,767.
Still for that read-out and setting: next, `C=CC(C)=CCC=C(C)C` [OCIMENE, Ocimene]: 0,836; `C[C@H]1CC[C@@]2(O)C(C)(C)[C@@H]3CC[C@@]2(C)[C@H]1C3` [PATCHOULI ALCOHOL, (1R,3R,6S)-2,2,6,8-Tetramethyl-tricyclo[5.3.1.03,8]undec-3-ol]: 0,972.
For the molecule `CC1=CCC(C(C)C)=CC1` [TERPINENE GAMMA, Terpinene gamma], the “inhibition rate (normed, based on NBPT)” value is 0,523.
The same measure, in the same setting: next, `CC1=CC(C)C(C=O)CC1` (stereo not shown) [VERTOCITRAL, (Z,E)-2,4-dimethyl cyclohex-3-ene-1-carbaldehyde]: 0,559.

The same assay, now with this note: […], given as fraction; 1 hour, 24°C.
As for `CCCCNP(N)(N)=S` [NBPT, N-(n-Butyl)thiophosphoric triamide, reference compound], the Inhibition was 1,00.

Source of the values: patent EP4527191A1, “UREASE INHIBITORS” (priority 2023, dated 2025).
